# Experimental data reported in publication PMC4336329 (PLoS ONE, 2015).
# About 14,000 (4.5%) of roughly 310,000 compounds showed an effect of 50% or more. Effects have a minus sign here. This is one part of the list.
# Molecular target: human ether-à-go-go-related gene (hERG) potassium channel (human, UniProt Q12809)
# Test: primary screen, population patch clamp on CHO cells stably expressing hERG
# 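Also: peak tail current of the secondary pulse compared with the same well before compound.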
# human ether-à-go-go-related gene (hERG) potassium channel, sequence (Q12809 whole entry, looked up): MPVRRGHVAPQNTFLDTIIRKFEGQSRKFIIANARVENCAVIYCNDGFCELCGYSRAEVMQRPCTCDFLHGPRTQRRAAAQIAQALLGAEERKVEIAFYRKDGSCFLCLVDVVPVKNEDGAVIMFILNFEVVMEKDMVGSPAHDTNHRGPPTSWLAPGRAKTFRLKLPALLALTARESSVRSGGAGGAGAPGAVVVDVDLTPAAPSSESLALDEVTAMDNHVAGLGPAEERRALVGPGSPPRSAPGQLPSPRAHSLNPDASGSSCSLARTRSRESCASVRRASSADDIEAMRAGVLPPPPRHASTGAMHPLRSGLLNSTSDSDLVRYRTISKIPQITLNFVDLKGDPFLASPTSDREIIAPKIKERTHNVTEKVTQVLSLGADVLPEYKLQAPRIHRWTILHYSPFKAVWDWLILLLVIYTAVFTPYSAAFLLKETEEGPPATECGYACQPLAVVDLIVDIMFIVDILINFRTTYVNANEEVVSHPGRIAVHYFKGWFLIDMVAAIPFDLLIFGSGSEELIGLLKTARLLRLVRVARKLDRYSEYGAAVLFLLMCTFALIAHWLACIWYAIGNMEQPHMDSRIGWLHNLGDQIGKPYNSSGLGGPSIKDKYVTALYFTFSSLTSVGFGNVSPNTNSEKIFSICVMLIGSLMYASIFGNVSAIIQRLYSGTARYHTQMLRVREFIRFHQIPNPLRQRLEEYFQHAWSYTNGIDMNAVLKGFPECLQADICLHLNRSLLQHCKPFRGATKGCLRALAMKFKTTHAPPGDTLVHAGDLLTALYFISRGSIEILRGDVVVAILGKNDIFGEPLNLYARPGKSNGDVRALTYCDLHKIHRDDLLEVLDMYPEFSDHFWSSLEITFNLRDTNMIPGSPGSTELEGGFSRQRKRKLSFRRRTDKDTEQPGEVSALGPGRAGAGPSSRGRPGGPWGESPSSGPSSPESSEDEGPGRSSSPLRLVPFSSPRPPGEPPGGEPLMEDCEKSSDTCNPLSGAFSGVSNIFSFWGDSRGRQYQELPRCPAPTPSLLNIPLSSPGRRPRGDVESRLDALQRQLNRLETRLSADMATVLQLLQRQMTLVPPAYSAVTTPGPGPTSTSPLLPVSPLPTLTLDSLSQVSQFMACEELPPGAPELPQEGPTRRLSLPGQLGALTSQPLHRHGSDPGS
row,SMILES,"hERG current change (%, negative = inhibition) at 10uM"
1,CC1CCN(C(=O)c2[nH]cnc2C(=O)NCCCCCNC(=O)OC(C)(C)C)CC1,10.6%
2,CCN(Cc1ccc2c(c1)OCCO2)S(=O)(=O)c1ccc(NC(C)=O)cc1,-10.8%
3,O=C(Nc1cccnc1)c1coc(=O)c2ccccc12,6.62%
4,Cc1c(CC(=O)NCCCCCC(=O)O)c(=O)oc2cc3c(cc12)CCC(C)(C)O3,9.83%
5,O=C(Nc1ccc2oc(-c3ccccc3)nc2c1)c1cccnc1,-8.37%
6,Cc1ccc(S(=O)(=O)NCCC(=O)OCC(=O)Nc2cccc(Cl)c2)cc1,-27.5%
7,Cl.Fc1ccc(COc2ccccc2CNCc2ccncc2)cc1,-32.6%
8,CC1=Nc2ccccc2N=C(NC(=O)c2ccccc2)C1c1ccc(Cl)cc1 (stereo not shown),12.7%
9,NC(=O)c1cc(S(=O)(=O)Nc2ccc(OC(F)(F)F)cc2)cs1,14.3%
10,CCCC(C(=O)Nc1ccncc1)c1ccccc1 (stereo not shown),14.8%
11,Cc1ccc(C)c(S(=O)(=O)N2CCN(CC(=O)Nc3cc(C)on3)CC2)c1,-12.6%
12,Cc1ccc(S(=O)(=O)Nc2ccc(S(=O)(=O)N3CCOCC3)cc2)cc1,3.78%
13,Cc1cc(-c2ccc(Cl)cc2Cl)c(C#N)c(=O)[nH]1,-2.97%
14,c1ccc(-c2nn3c(Cn4cnc5ccccc54)nnc3s2)cc1,-7.78%
15,CC(NS(=O)(=O)c1ccccc1)C(c1cccs1)N1CCN(C)CC1 (stereo not shown),5.5%
16,CCCCNC(=S)Nc1ccc(Oc2ccccc2)cc1,1.82%
17,COCCn1c(SCC(=O)N2CCCCCC2)nnc1-c1ccco1,18.2%
18,Cc1ccc(-n2c(SCc3ccc(C#N)cc3)nnc2-c2ccccn2)cc1,-48.7%
19,CN(C)S(=O)(=O)c1cccn1-c1ncc(C(F)(F)F)cc1Cl,-10.4%
20,COC(=O)Nc1c(-c2ccccc2)nc2ccccn12,0.337%
21,Cc1nc(SCC(=O)O)c(C#N)c(C)c1CC(=O)c1ccccc1,21.3%
22,NC(=S)N/N=C/c1ccccc1O,14.5%

row,SMILES,"hERG current change (%, negative = inhibition) at 10uM"
1,CCOC(=O)N1C2=NC(C(=O)OC)=C(C(=O)OC)[C@@H]3N(C)c4ccc(OC)cc4[C@]23C[C@H]1C(=O)OC,6.52%
2,CC(C)N1CCc2c(sc(NC(=O)c3ccc(S(=O)(=O)N4CCc5ccccc54)cc3)c2C(N)=O)C1.Cl,-27.3%
3,COc1ccc(CCNC(N)=S)cc1OC,13.9%
4,C/C(=N\N1CCN(C2c3ccccc3-c3ccccc32)CC1)c1cccnc1,-2.47%
5,CCN(CC)S(=O)(=O)c1ccc2oc(C(=O)N3CCc4ccccc4C3)c(C)c2c1,-21.8%
6,O=C(O)C1CCCN1c1ncnc2ccccc12 (stereo not shown),9.37%
7,Cc1ccc(N/C(N)=N/c2nc(CSc3nnc(N)s3)cc(=O)[nH]2)cc1,11.5%
8,CC(C)C(NS(=O)(=O)c1ccc2c(c1)Cc1cc(S(=O)(=O)NC(C(=O)O)C(C)C)ccc1-2)C(=O)O (stereo not shown),15.1%
9,CCCCN(Cc1cc2cc(OC)ccc2[nH]c1=O)C(=O)c1ccco1,-22.4%
10,Cc1ccc(C(=O)COC(=O)c2ccc(-c3cnc4ccccc4n3)cc2)cc1C,-1.51%
11,COc1cc(C(=O)OC(C)CN2CCOCC2)cc(OC)c1OC (stereo not shown),8.78%
12,NC(=O)c1ccccc1N=Cc1ccccn1,-5.25%
13,COCCn1nnnc1C(C(C)C)N1CCN(C(=O)c2ccco2)CC1.Cl (stereo not shown),-1.29%
14,O=c1c(-c2ccc(O)cc2)coc2cc(O)cc(O)c12,12.8%
15,COC(=O)c1scc(C)c1NC(=O)C(Cl)c1ccccc1 (stereo not shown),8.83%
16,CCOC(=O)c1oc2cccc(O)c2c1C,-7.22%
17,COC(=O)c1scc(C)c1NC(=O)c1cccc(C#N)c1,11.2%
18,CCC(/C=N/NC(=O)CCCCC(=O)N/N=C/C(CC)CC)CC,1.36%
19,COc1ccc(NS(=O)(=O)c2ccc(N)c(C(=O)O)c2)cc1,11.9%
20,Cc1csc(NC(=O)c2ccc(OCC3CCCO3)cc2)n1 (stereo not shown),9.55%
21,CCOC(=O)C(C(=O)OCC)C(=O)c1cc(OC)c(OC)c(OC)c1,-16.4%
22,Cc1cccc(OCc2nnc(SCC(=O)Nc3sc(C)c(C)c3C#N)n2C)c1,18.9%

row,SMILES,"hERG current change (%, negative = inhibition) at 10uM"
1,O=C(Nc1ccc2c(c1)oc1ccccc12)c1ccncc1,5.01%
2,CSCCC(NS(=O)(=O)c1ccc2c(c1)oc(=O)n2C)C(=O)NC1CCN(Cc2ccccc2)CC1 (stereo not shown),-7.44%
3,CC(=O)c1ccc(N2CCN(c3ccc4cc(S(=O)(=O)N5CCC(C)CC5)ccc4n3)CC2)cc1,5.23%
4,O=C(CCC1CCCN(C(=O)CCCc2ccccc2)C1)N1CCN(c2ccccn2)CC1 (stereo not shown),-35.2%
5,COc1ccccc1N1CCN(CCC(=O)Nc2cccc(Cl)c2)CC1.Cl,-62.8%
6,O=C(c1ccccn1)N(Cc1cc2ccccc2[nH]c1=O)C1CCCCC1,-2.49%
7,Cc1cc(C)cc(NC(=O)C2CCCN2C(=O)Oc2ccccc2)c1 (stereo not shown),-10.9%
8,CCc1ccccc1NC(=O)C(Cc1ccccc1)c1nn[nH]n1 (stereo not shown),21.1%
9,COc1ccccc1N1C[C@@H]2C[C@@H](c3ccco3)N3CCC[C@@]23C1=O,11.4%
10,Cc1ccc2nc(SCC(=O)Nc3cc(C(C)(C)C)nn3-c3ccccc3)[nH]c2c1,3.37%
11,Cc1ccc(N2C(=O)[C@@H]3[C@H](C2=O)C2c4ccccc4C=NN2[C@@H]3C(=O)c2ccc(Cl)cc2)cc1 (stereo partly shown),9.94%
12,O=S(=O)(Nc1ccc(N2CCCCC2)cc1)c1cccs1,-6.8%
13,Cc1ccc(NC(=O)CSc2nnc(-c3n[nH]c4ccccc34)n2-c2ccccc2)c(C)c1,17.1%
14,C=CCN(c1ccc(C(=O)Nc2ccc(C)c(C)c2)cc1)S(C)(=O)=O,-7.62%
15,CC1CCN(CCCCOc2ccc(C(=O)c3ccccc3)cc2)CC1.O=C(O)C(=O)O,-77%
16,Cc1ccc(Sc2sc(=O)n(C)c2S(=O)(=O)c2ccc(C)cc2)cc1,5.44%
17,Cc1cc(=O)[nH]c(-c2ccccc2)n1,20%
18,C=CCn1c(C(C)NC(=O)c2cccc(C)c2)n[nH]c1=S (stereo not shown),18.7%
19,O=C(CCCOc1ccccc1)Nc1ccc2c(c1)OCCO2,14%
20,Cc1oc(-c2cccc(Cl)c2)nc1CN1CCC(C(=O)N2CCN(c3ccccc3F)CC2)CC1,-69.1%
21,COC(=O)c1cnc(Nc2ccc(Cl)cc2)c([N+](=O)[O-])c1,13.1%
22,C=CCn1c(O)c(C=Nc2ccc(N(CC)CC)cc2)c(=O)[nH]c1=O,-7.13%

row,SMILES,"hERG current change (%, negative = inhibition) at 10uM"
1,Cc1ccc(NC(=O)COC(=O)c2ccc(S(=O)(=O)N3CCCCC3)cc2)cc1,8.88%
2,Cc1nn(-c2ccccc2)c(Cl)c1/C=C/C(=O)c1ccccc1,-10.4%
3,CCCn1c(SCC(=O)c2cc(C)c(C)cc2C)n[nH]c1=O,2.15%
4,Cc1ccc(CN(Cc2ccco2)S(=O)(=O)c2ccc(S(=O)(=O)NCC3CCCO3)cc2)cc1 (stereo not shown),15.1%
5,Cc1cc(NS(=O)(=O)c2ccc(NC(=O)COc3ccccc3C(C)C)cc2)no1,18.7%
6,O=C(COc1cccc2ccccc12)N/N=C/c1ccco1,-5.35%
7,COc1ccc(N2CC(C(=O)NCCCN3CCOCC3)CC2=O)cc1 (stereo not shown),-7.87%
8,Cc1onc(-c2ccccc2Cl)c1C(=O)N1CCN(C)CC1,20.2%
9,CCOC(=O)c1cc(-c2ccc(Cl)cc2)nc2c1c(C)nn2CCC#N,9.9%
10,Cc1ccc(-c2cccc(OC(=O)c3ccccc3F)c2)cc1,5.02%
11,Cc1ccc(C)c(NS(=O)(=O)c2cc(Br)cnc2N)c1,9.19%
12,O=C(COC(=O)/C=C/c1ccccc1[N+](=O)[O-])Nc1ccc(OC(F)F)cc1,-5.14%
13,CC(C)(C)C(=O)NNC(=O)c1cnccn1,3.29%
14,CCC1(C)OC(=O)NN(c2ccc(C)cc2)C1(C)O (stereo not shown),3.34%
15,C=CCC12C=C(OC)C(=O)OC(OC)(C1O)[C@H](c1ccc3c(c1)OCO3)[C@H]2C (stereo partly shown),12.8%
16,CC(C)CCNC(=O)C1CCC(CNc2c(N3CCCC3)c(=O)c2=O)CC1 (stereo not shown),2.2%
17,Cc1ccc2[nH]c(=O)c(CN(CCc3ccccc3)C(=O)N3CCOCC3)cc2c1,-13.6%
18,Cc1csc(SCC(=O)NC(=O)c2ccccc2)n1,4.09%
19,CCN1CCN(C(=O)N(c2ccccc2)c2ccccc2)CC1,11.9%
20,FC(F)(F)c1cnc(Nc2ccc(N3CCOCC3)cc2)c(Cl)c1,-23.5%
21,CC1CC(C)CN(S(=O)(=O)N2CCCC(C(=O)NC3CCCCC3)C2)C1 (stereo not shown),18.4%
22,Nn1c(SCC(=O)Nc2ccc(S(=O)(=O)N3CCCC3)cc2)nnc1C(F)(F)F,15.6%
